The whole screen tested about 280,000 compounds, of which about 1,100 (0.39%) were called active. The shares of active, inactive and inconclusive entries below differ from those in the screen. Calls follow the shape of the dose curve; as a rule, active = well fitted inhibition curve with a large enough effect; inconclusive = small, poorly fitted or top-dose-only effect, or effect the other way; inactive = flat fitted curve, though single readings scatter. No potency is given beside an inconclusive call; the fits are too rough.
Target: Microtubule-associated protein tau (Homo sapiens) (UniProt P10636)
Experiment: qHTS for Inhibitors of Tau Fibril Formation, Fluorescence Polarization; also: nearly all actives have a fitted effect of over 55% in size
Details: K18 P301L tau heparin fibrillization, Alexa594 FP, 6 h; series mostly up to 57.7 µM; activity, negative = inhibition: at the top concentration
In short: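 Read-out: fluorescence polarization of Alexa 594-labeled tau (0.24 uM), 555 nm excitation, 632 nm emission. Mixtures held 15 uM unlabeled K18 P301L, compound and 20 uM heparin, pH 7 acetate buffer, incubated 6 hr at 37 C.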
% is scaled to controls: 0 for no effect and ±100 for the full control effect; potency is read from the fitted curve at half-maximal effect; tags tell the direction and shape of the fitted curve.

Chain of UniProt P10636 (P10636 whole entry, looked up): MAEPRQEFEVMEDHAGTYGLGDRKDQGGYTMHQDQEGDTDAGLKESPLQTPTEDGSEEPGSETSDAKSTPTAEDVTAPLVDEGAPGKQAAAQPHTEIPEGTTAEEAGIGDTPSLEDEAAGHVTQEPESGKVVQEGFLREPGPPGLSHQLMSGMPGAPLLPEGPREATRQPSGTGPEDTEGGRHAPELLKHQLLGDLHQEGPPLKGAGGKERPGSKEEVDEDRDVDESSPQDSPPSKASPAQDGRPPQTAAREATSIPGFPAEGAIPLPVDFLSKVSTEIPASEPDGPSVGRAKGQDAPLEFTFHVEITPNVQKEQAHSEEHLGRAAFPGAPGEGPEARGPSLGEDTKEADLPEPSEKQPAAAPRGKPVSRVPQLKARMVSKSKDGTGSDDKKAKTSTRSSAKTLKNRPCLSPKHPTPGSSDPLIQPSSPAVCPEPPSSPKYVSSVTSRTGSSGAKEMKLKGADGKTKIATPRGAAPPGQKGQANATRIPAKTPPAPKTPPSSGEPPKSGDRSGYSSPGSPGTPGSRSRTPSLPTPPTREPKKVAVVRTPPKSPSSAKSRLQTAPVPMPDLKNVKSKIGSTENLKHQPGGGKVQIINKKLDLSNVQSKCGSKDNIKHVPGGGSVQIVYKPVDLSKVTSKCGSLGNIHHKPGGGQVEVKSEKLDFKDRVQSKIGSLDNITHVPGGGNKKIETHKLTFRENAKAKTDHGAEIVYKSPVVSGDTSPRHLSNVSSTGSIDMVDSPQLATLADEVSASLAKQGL

Row | Compound | Potency | activity, negative = inhibition
1 | COc1ccc(/C=C(/C(=O)c2cccs2)N2C=CC=CC2=C(C#N)C#N)cc1 | inconclusive [inhibitor, partial curve] | –
2 | O=c1[nH]c2ccccc2n1C1=CCCC1 | inconclusive [activator, partial curve, poor fit] | –
3 | CCN(CC)c1ccc(NC(=O)CCCOc2cccc(C)c2)cc1 | inconclusive [activator, full curve] | –
4 | COc1ccc(C(=O)O)c(O)c1OC | inconclusive [inhibitor, full curve, poor fit] | –
5 | O=C(Oc1ccccc1)Oc1ccc2c(c1)oc(=O)c1ccccc12 | inconclusive [inhibitor, partial curve] | –
6 | Cc1ccc(C(=O)Cn2cnc3ccccc3c2=O)cc1 | inconclusive [activator, single point] | –
7 | COc1ccc(Cn2c(=O)[nH]c3cc(C(=O)N4CCN(c5cccc(Cl)c5)CC4)ccc3c2=O)cc1 | inconclusive [inhibitor, partial curve] | –
8 | CCOc1ccc(NC(=O)CN2C(=O)C(c3ccccc3)=NC23CCC(C)CC3)cc1 (stereo unspecified) | – | inactive: -6.64%
9 | COc1ccc(NC(=O)c2oc3ccccc3c2NC(=O)c2ccc3c(c2)OCO3)cc1 | inconclusive [inhibitor, partial curve] | –
10 | CCOC(=O)c1ccc(CN(Cc2ccc(F)cc2)S(=O)(=O)c2cc(C(=O)Nc3cccc(C(F)(F)F)c3)ccc2F)cc1 | active: 14.1 µM | –
11 | O=C(COC(=O)Cn1cnc2ccccc21)Nc1cccc(S(=O)(=O)N2CCOCC2)c1 | – | inactive: 0.426%
12 | Clc1ccc2c(c1)-c1[nH]ncc1CS2 | inconclusive [inhibitor, partial curve, poor fit] | –
13 | COc1cc(/C=C/C(=O)N2CCCCC2=O)cc(OC)c1OC | inconclusive [inhibitor, partial curve] | –
14 | CCOC(=O)c1[nH]c2ccc(F)cc2c1NC(=O)c1cc(OC)c(OC)c(OC)c1 | inconclusive [activator, single point] | –
15 | COC(=O)CCCC1=CC2=CC(=O)C(C)(OC(=O)c3cccs3)C(=O)C2=CN1Cc1ccccc1 (stereo unspecified) | inconclusive [inhibitor, partial curve] | –
16 | COc1ccccc1NC(=O)Cn1c(=O)n(Cc2ccccc2)c(=O)c2sc3ccccc3c21 | inconclusive [inhibitor, partial curve] | –
17 | Cc1ccc(-c2nnc(Nc3cccc(Cl)c3)c3ccccc23)cc1S(=O)(=O)N1CCOCC1 | inconclusive [inhibitor, partial curve] | –
18 | Cc1ccccc1-c1cc(C(=O)Nc2sc(C)c(C)c2C(N)=O)c2ccccc2n1 | inconclusive [inhibitor, partial curve] | –
19 | CCOC(=O)N1CC=C2C(C#N)=C(N)C(C#N)(C#N)[C@H](c3cccs3)[C@H]2C1 | inconclusive [inhibitor, single point] | –
20 | COc1ccc(OC)c(NC(=O)CN(C)S(=O)(=O)c2ccc(C(=O)N3CCOCC3)s2)c1 | inconclusive [inhibitor, single point] | –
21 | Cc1cc(C)c(NC(=O)CSc2nc3ccccc3nc2N2CCCCC2)c(C)c1 | – | inactive: -5.91%

Row | Compound | Potency | activity, negative = inhibition
22 | COc1cc(NC(=O)CN(c2cc(C)cc(C)c2)S(=O)(=O)c2c(C)noc2C)cc(OC)c1 | inconclusive [inhibitor, partial curve, poor fit] | –
23 | COc1cccc(NC(=O)Nc2ccc(C(C)(C)C)cc2)c1 | inconclusive [inhibitor, single point] | –
24 | Cc1ccc(-c2ccc(/C=N/N=C3/NC(=O)C(CC(=O)O)S3)o2)c([N+](=O)[O-])c1 (stereo unspecified) | inconclusive [inhibitor, partial curve] | –
25 | O=C(COc1cccc2ccccc12)N/N=C/c1ccc(Sc2nc3ccccc3s2)o1 | inconclusive [inhibitor, partial curve, poor fit] | –
26 | COc1ccc2nc(SCC(=O)N3CCCCC3)c(C#N)cc2c1 | – | inactive: 11.5%
27 | Cc1c(C(=O)c2no[n+]([O-])c2C(=O)c2cnn(C)c2C)cnn1C | inconclusive [inhibitor, partial curve, poor fit] | –
28 | CCOc1cccc(C(=O)Nc2ccc(S(=O)(=O)N(Cc3ccccc3)c3ccccc3)cc2)c1 | inconclusive [inhibitor, partial curve] | –
29 | CCn1nc([N+](=O)[O-])c(C(C#N)c2nc3cc(C(F)(F)F)ccc3s2)c(Cl)c1=O (stereo unspecified) | active: 20 µM | –
30 | O=C1C2CC=C(Cl)CC2C(=O)N1CC1OCCc2ccccc21 (stereo unspecified) | – | inactive: 4.39%
31 | O=C(Nc1ccccc1)c1cnc2n(c1=O)CCS2 | inconclusive [activator, single point] | –
32 | COC(=O)c1cc2occc2n1Cc1nc(-c2ccccc2F)oc1C | inconclusive [inhibitor, single point] | –
33 | Cc1cc(C(=O)COC(=O)c2ccc(O)cc2)c(C)n1-c1ccccc1F | inconclusive [inhibitor, partial curve, poor fit] | –
34 | COC(=O)/C(=C/Nc1ccc(O)cc1)[N+](=O)[O-] | inconclusive [inhibitor, partial curve] | –
35 | CC(C)c1ccc(NC(=O)c2snc3ccc(Cl)cc23)cc1 | active: 22.4 µM | –
36 | COc1ccc(C(=O)c2oc3ccccc3c2NC(=O)COc2ccccc2)cc1 | inconclusive [inhibitor, full curve] | –
37 | CCOc1ccc(N2C(=O)S/C(=C\c3ccc(O)c(OCC)c3)C2=O)cc1 | inconclusive [inhibitor, single point] | –
38 | COC(=O)c1ccc(CNC(=O)/C=C/c2cc([N+](=O)[O-])ccc2OC(F)F)cc1 | inconclusive [inhibitor, single point] | –
39 | O=C(COc1ccc(Cl)cc1)OCc1cc(=O)n2nc(-c3cccs3)sc2n1 | – | inactive: 3.38%
40 | Brc1ccc2[nH]ncc2c1 | – | inactive: 5.26%
41 | CC(=O)C(=Nc1ccccc1Cl)NNc1ccc(Cl)cc1 | inconclusive [inhibitor, full curve, poor fit] | –

Source: PubChem BioAssay AID1468 (National Center for Advancing Translational Sciences (NCATS), 2008)
